# Laboratory results from the supplement of paper PMC8728848.
# The list shows a part of the results.
# B1: rEtpA (Escherichia coli) (protein)
# chain: MNRIYKLKFDKRRNELVVVSEITTGVGNAKATGSVEGEKSPRRGVRAMALSLLSGMMIMAHPAMSANLPTGGQIVAGSGSIQTPSGNQMNIHQNSQNMVANWNSFDIGKGNTVQFDQPSSSAVALNRVVGGGESQIMGNLKANGQVFLVNPNGVLFGEGASVSTSGFVASTRDIKNDDFMNRRYTFSGGQKAGAAIVNQGELTTNAGGYIVLAADRVSNSGTIRTPGGKTVLAASERITLQLDNGGLMSVQVTGDVVNALVENRGLVSARDGQVYLTALGRGMLMNTVLNVSGVVEASGMHRQDGNIVLDGGDSGVVHLSGTLQADNASGQGGKVVVQGKNILLDKGSNITATGGQGGGEVYVGGGWQGKDSNIRNADKVVMQGGARIDVSATQQGNGGTAVLWSDSYTNFHGQISAKGGETGGNGGRVETSSHGNLQAFGTVSASAKKGKAGNWLLDSADITIVNGSNVSKTETTQSPPHTQFAPTAAGSAVSNTSINNRLNNGTSVTILTHRTRTGTAQGGNITVNAAINKSNGSDVNLTLQAGGNITVNNSITSTEGKLNVNLSGARTSNGSITISNNANITTNGGDITVGTTNTSNRVNISINNTTLNASNGNIQLTGTGTDSGILFAGNNRLTASNIALTGNSTSGNAINLTGTATLNATNNITLTGSSTSGNAINLKGNNTLTASNITLTGESTSGNAINLTDTTGTTTLNATNNITMQGTRVQIKHSNITAGNFALNATVAGSEISNTTLTATNNINLAAKTNSASSGVYLKDARITSTNGSITANGTATANGKATHLDGNVTLNASNGRIKLTGNGHGSASGILFAGNNRLTASNIALTGNSTSGNAINLTGTATLNATNDITLTGSSTSGNAINLTGTATLNATNNITLTGSSTSGNAINLKGNNTLTASNITLTGESTSGNAINLTDTTGTTTLNATNNITMQGTRVQIKHSNITAGNFALNATVAGSEISNTTLTATNNINLAAKTNSASSGVYLKDARITSTNGSITANGTATANGKATHLDGNVTLNASNGRIKLTGNGHGSASGILFAGNNRLTASNIALTGNSTSGNAINLTGTATLNATNDITLTGSSTSGNAINLTGTATLNATNNITLTGSSTSGNAINLKGNNTLTASNITLTGESTSGNAINLTDTTGTTTLNATNNITMQGTRVQIKHSNITAGNFALNATVAGSEISNTTLTATNNINLAAKTNSASSGVYLKDARITSTNGSITANGTATANGKATHLDGNVTLNASNGRIKLTGNGHGSASGILFAGNNRLTASNIALTGNSTSGNAINLTGTATLNATNDITLTGSSTSGNAINLTGTATLNATNNITLTGSSTSGNAINLKGNNTLTASNITLTGESTSGNAINLTDTTGTTTLNATNNITMQGTRVQIKHSNITAGNFALNATVAGSEISNTTLTATNNINLAAKTNSASSGVYLKDARITSTNGSITTNGTATANGKATHLDGNVTLNASNGRIKLTGNGHGSASGILFAGNNRLTASNIALTGNSTSGNAINLTGTATLNATNDITLTGSSTSGNAINLTGTATLNATNNITLTGSSTSGNAINLKGNNTLTASNITLTGESTSGNAINLTDTTGTTTLNATNNITMQGTRVQIKHSNITAGNFALNATVAGSEISNTTLTATNNINLAAKTNSASSGVYLKDARITSTNGSITANGTAPANDNATYLDGNVTLNASNGSIKLTGNGNGSTSGILFAGNNTLTASNITLTGNSEVYWQKLGPEQKLISEEDLNSAVDHHHHHH
# What was measured:
# Assay in all cases: glycan array binding signal (z-score within array); higher = stronger binding
# Conditions in all cases: glycan notation: IUPAC condensed, linker removed
# [1] = target: Gal(b1-4)GlcNAc(b1-2)[Gal(b1-4)GlcNAc(b1-6)]Man(a1-6)[GlcNAc(b1-4)][Gal(b1-4)GlcNAc(b1-2)Man(a1-3)]Man(b1-4)GlcNAc(b1-4)GlcNAc
# In short: (§1)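 From the Consortium for Functional Glycomics database, 3228 arrays were curated, keeping only those whose protein sequence was available. Binding is given as a within-array Z-score averaged across arrays sharing a protein sequence and across linkers. Negative Z-scores can be read as non-binding.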
# [2] = target: Gal(b1-4)GlcNAc(b1-2)[Gal(b1-4)GlcNAc(b1-6)]Man(a1-6)[GlcNAc(b1-4)][Gal(b1-4)GlcNAc(b1-2)[Gal(b1-4)GlcNAc(b1-4)]Man(a1-3)]Man(b1-4)GlcNAc(b1-4)[Fuc(a1-6)]GlcNAc
# In short: as §1
# [3] = target: Gal(b1-4)GlcNAc(b1-3)Gal(b1-3)GalNAc
# In short: as §1
# [4] = target: Gal(b1-4)GlcNAc(b1-3)Gal(b1-3)GlcNAc
# In short: as §1
# [5] = target: Gal(b1-4)GlcNAc(b1-3)Gal(b1-4)Glc
# In short: as §1
# [6] = target: Gal(b1-4)GlcNAc(b1-3)Gal(b1-4)GlcNAc
# In short: as §1
# [7] = target: Gal(b1-4)GlcNAc(b1-3)Gal(b1-4)GlcNAc(b1-2)Man(a1-3)[Gal(b1-4)GlcNAc(b1-3)Gal(b1-4)GlcNAc(b1-2)Man(a1-6)]Man(b1-4)GlcNAc(b1-4)GlcNAc
# In short: as §1
# [8] = target: Gal(b1-4)GlcNAc(b1-3)Gal(b1-4)GlcNAc(b1-2)Man(a1-3)[Gal(b1-4)GlcNAc(b1-3)Gal(b1-4)GlcNAc(b1-2)Man(a1-6)]Man(b1-4)GlcNAc(b1-4)[Fuc(a1-6)]GlcNAc
# In short: as §1
# [9] = target: Gal(b1-4)GlcNAc(b1-3)Gal(b1-4)GlcNAc(b1-2)[Gal(b1-4)GlcNAc(b1-3)Gal(b1-4)GlcNAc(b1-6)]Man(a1-6)[Gal(b1-4)GlcNAc(b1-3)Gal(b1-4)GlcNAc(b1-2)Man(a1-3)]Man(b1-4)GlcNAc(b1-4)GlcNAc
# In short: as §1
# [10] = target: Gal(b1-4)GlcNAc(b1-3)Gal(b1-4)GlcNAc(b1-2)[Gal(b1-4)GlcNAc(b1-3)Gal(b1-4)GlcNAc(b1-6)]Man(a1-6)[Gal(b1-4)GlcNAc(b1-3)Gal(b1-4)GlcNAc(b1-2)Man(a1-3)]Man(b1-4)GlcNAc(b1-4)[Fuc(a1-6)]GlcNAc
# In short: as §1
# [11] = target: Gal(b1-4)GlcNAc(b1-3)Gal(b1-4)GlcNAc(b1-3)Gal(b1-4)GlcNAc
# In short: as §1
# [12] = target: Gal(b1-4)GlcNAc(b1-3)Gal(b1-4)GlcNAc(b1-3)Gal(b1-4)GlcNAc(b1-2)Man(a1-3)[Gal(b1-4)GlcNAc(b1-3)Gal(b1-4)GlcNAc(b1-3)Gal(b1-4)GlcNAc(b1-2)Man(a1-6)]Man(b1-4)GlcNAc(b1-4)GlcNAc
# In short: as §1
# [13] = target: Gal(b1-4)GlcNAc(b1-3)Gal(b1-4)GlcNAc(b1-3)Gal(b1-4)GlcNAc(b1-2)Man(a1-3)[Gal(b1-4)GlcNAc(b1-3)Gal(b1-4)GlcNAc(b1-3)Gal(b1-4)GlcNAc(b1-2)Man(a1-6)]Man(b1-4)GlcNAc(b1-4)[Fuc(a1-6)]GlcNAc
# In short: as §1
# [14] = target: Gal(b1-4)GlcNAc(b1-3)Gal(b1-4)GlcNAc(b1-3)Gal(b1-4)GlcNAc(b1-2)[Gal(b1-4)GlcNAc(b1-3)Gal(b1-4)GlcNAc(b1-3)Gal(b1-4)GlcNAc(b1-6)]Man(a1-6)[Gal(b1-4)GlcNAc(b1-3)Gal(b1-4)GlcNAc(b1-3)Gal(b1-4)GlcNAc(b1-2)Man(a1-3)]Man(b1-4)GlcNAc(b1-4)[Fuc(a1-6)]GlcNAc
# In short: as §1
# [15] = target: Gal(b1-4)GlcNAc(b1-3)Gal(b1-4)GlcNAc(b1-3)Gal(b1-4)GlcNAc(b1-3)Gal(b1-4)GlcNAc(b1-2)Man(a1-3)[Gal(b1-4)GlcNAc(b1-3)Gal(b1-4)GlcNAc(b1-3)Gal(b1-4)GlcNAc(b1-3)Gal(b1-4)GlcNAc(b1-2)Man(a1-6)]Man(b1-4)GlcNAc(b1-4)GlcNAc
# In short: as §1
# [16] = target: Gal(b1-4)GlcNAc(b1-3)Gal(b1-4)GlcNAc(b1-3)Gal(b1-4)GlcNAc(b1-3)Gal(b1-4)GlcNAc(b1-2)Man(a1-3)[Gal(b1-4)GlcNAc(b1-3)Gal(b1-4)GlcNAc(b1-3)Gal(b1-4)GlcNAc(b1-3)Gal(b1-4)GlcNAc(b1-2)Man(a1-6)]Man(b1-4)GlcNAc(b1-4)[Fuc(a1-6)]GlcNAc
# In short: as §1
# [17] = target: Gal(b1-4)GlcNAc(b1-3)Gal(b1-4)GlcNAc(b1-3)Gal(b1-4)GlcNAc(b1-3)Gal(b1-4)GlcNAc(b1-2)[Gal(b1-4)GlcNAc(b1-3)Gal(b1-4)GlcNAc(b1-3)Gal(b1-4)GlcNAc(b1-3)Gal(b1-4)GlcNAc(b1-6)]Man(a1-6)[Gal(b1-4)GlcNAc(b1-3)Gal(b1-4)GlcNAc(b1-3)Gal(b1-4)GlcNAc(b1-3)Gal(b1-4)GlcNAc(b1-2)Man(a1-3)]Man(b1-4)GlcNAc(b1-4)[Fuc(a1-6)]GlcNAc
# In short: as §1
# [18] = target: Gal(b1-4)GlcNAc(b1-3)Gal(b1-4)GlcNAc(b1-3)Gal(b1-4)GlcNAc(b1-3)Gal(b1-4)GlcNAc(b1-3)Gal(b1-4)GlcNAc(b1-2)Man(a1-3)[Gal(b1-4)GlcNAc(b1-3)Gal(b1-4)GlcNAc(b1-3)Gal(b1-4)GlcNAc(b1-3)Gal(b1-4)GlcNAc(b1-3)Gal(b1-4)GlcNAc(b1-2)Man(a1-6)]Man(b1-4)GlcNAc(b1-4)GlcNAc
# In short: as §1
# [19] = target: Gal(b1-4)GlcNAc(b1-3)Gal(b1-4)GlcNAc(b1-3)Gal(b1-4)GlcNAc(b1-3)Gal(b1-4)GlcNAc(b1-3)Gal(b1-4)GlcNAc(b1-2)Man(a1-3)[Gal(b1-4)GlcNAc(b1-3)Gal(b1-4)GlcNAc(b1-3)Gal(b1-4)GlcNAc(b1-3)Gal(b1-4)GlcNAc(b1-3)Gal(b1-4)GlcNAc(b1-2)Man(a1-6)]Man(b1-4)GlcNAc(b1-4)[Fuc(a1-6)]GlcNAc
# In short: as §1
# [20] = target: Gal(b1-4)GlcNAc(b1-3)Gal(b1-4)GlcNAc(b1-3)Gal(b1-4)GlcNAc(b1-3)Gal(b1-4)GlcNAc(b1-3)Gal(b1-4)GlcNAc(b1-2)[Gal(b1-4)GlcNAc(b1-3)Gal(b1-4)GlcNAc(b1-3)Gal(b1-4)GlcNAc(b1-3)Gal(b1-4)GlcNAc(b1-3)Gal(b1-4)GlcNAc(b1-6)]Man(a1-6)[Gal(b1-4)GlcNAc(b1-3)Gal(b1-4)GlcNAc(b1-3)Gal(b1-4)GlcNAc(b1-3)Gal(b1-4)GlcNAc(b1-3)Gal(b1-4)GlcNAc(b1-2)Man(a1-3)]Man(b1-4)GlcNAc(b1-4)[Fuc(a1-6)]GlcNAc
# In short: as §1
# [21] = target: Gal(b1-4)GlcNAc(b1-3)Gal(b1-4)GlcNAc(b1-3)Gal(b1-4)GlcNAc(b1-3)Gal(b1-4)GlcNAc(b1-3)Gal(b1-4)GlcNAc(b1-3)Gal(b1-4)GlcNAc(b1-2)Man(a1-3)[Gal(b1-4)GlcNAc(b1-3)Gal(b1-4)GlcNAc(b1-3)Gal(b1-4)GlcNAc(b1-3)Gal(b1-4)GlcNAc(b1-3)Gal(b1-4)GlcNAc(b1-3)Gal(b1-4)GlcNAc(b1-2)Man(a1-6)]Man(b1-4)GlcNAc(b1-4)GlcNAc
# In short: as §1
# [22] = target: Gal(b1-4)GlcNAc(b1-3)Gal(b1-4)GlcNAc(b1-3)GalNAc
# In short: as §1
# [23] = target: Gal(b1-4)GlcNAc(b1-3)Gal(b1-4)GlcNAc(b1-3)[Gal(b1-4)GlcNAc(b1-3)Gal(b1-4)GlcNAc(b1-6)]GalNAc
# In short: as §1
binder,measurement,setting,value
B1,glycan array binding signal (z-score),[1],-0.309
same,glycan array binding signal (z-score),[2],-0.376
same,glycan array binding signal (z-score),[3],-0.392
same,glycan array binding signal (z-score),[4],-0.38
same,glycan array binding signal (z-score),[5],-0.207
same,glycan array binding signal (z-score),[6],-0.434
same,glycan array binding signal (z-score),[7],-0.31
same,glycan array binding signal (z-score),[8],-0.17
same,glycan array binding signal (z-score),[9],-0.106
same,glycan array binding signal (z-score),[10],-0.356
same,glycan array binding signal (z-score),[11],-0.413
same,glycan array binding signal (z-score),[12],-0.319
same,glycan array binding signal (z-score),[13],-0.38
same,glycan array binding signal (z-score),[14],-0.362
same,glycan array binding signal (z-score),[15],-0.435
same,glycan array binding signal (z-score),[16],-0.319
same,glycan array binding signal (z-score),[17],-0.355
same,glycan array binding signal (z-score),[18],-0.398
same,glycan array binding signal (z-score),[19],-0.42
same,glycan array binding signal (z-score),[20],-0.351
same,glycan array binding signal (z-score),[21],-0.221
same,glycan array binding signal (z-score),[22],0.548
same,glycan array binding signal (z-score),[23],-0.249
